{"source": "the RNAGym collection of RNA variant scans (doi:10.1073/pnas.2313332121)", "parents": {"B1": {"name": "TPR 5TU (parent)", "chain": "GGAUCUUCUCGAUCUAACAAAAAAGACAAAUCUGCCACAAAGCUUGAGAGCAUCUUCGGAUGCAGAGGCGGCAGCCUUCGGUGGCGCGAUAGCGCCAACGUUCUCAACUAUGACACGCAAAACGCGUGCUCCGUUGAAUGGAGUUUAUCAUG"}}, "note": "This sample is rich in variants without activity."}
{"variants_of": "B1", "assay": "polymerase ribozyme fitness, log enrichment relative to wild type (log ratio); higher = more active; in vitro selection for triplet polymerase activity", "how_it_was_run": "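Both subunits of a heterodimeric triplet polymerase ribozyme were given their own mutant library, built by PCR and transcribed. Each library was annealed with a biotinylated primer, the partner subunit and triplets, incubated frozen at −7 °C, and its extended constructs gel-excised, captured on streptavidin beads and amplified by RT-PCR, all in one round done in triplicate. Fitness is the logarithm of genotype enrichment relative to wild-type enrichment, with replicates averaged by inverse-variance weighting. That logarithm is base 2, and Illumina-sequenced genotypes needed ≥10 input reads and ≥1 read per output.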"}
{"variant": "GGAUCUUCUCGAUCUAACAAAAAAGACAAAUCUGCCACAAAGCUUGAGAGCAUCUUAGGAUGUACAGGCGGCAGCCUUCGGUGGCGCGAUAGCGUCAACGUUCUCAACUAUGACACGCAAAACGUGUGCUCCGUUGAAUGGAGUUUAUCACG", "note": "[C57A C63U G65C C95U C125U U151C]", "polymerase ribozyme fitness (log ratio)": "≤ -4.2"}
{"variant": "GGAUCUUCUCGAUCUAACAAAAAAGACAAAUCUGCCACAAAGCUUGAGAGCAUCUUAGGAUGCAGAGGCGGGAGCCAUCGGUGGCGAGAUAGCGCCAACGUUCUCAACUAUGACACGCAAAACGCGAGCUCCGUUAAAUGGAGUUUAUCAUG", "note": "[C57A C72G U77A C87A U127A G136A]", "polymerase ribozyme fitness (log ratio)": "≤ -4.2"}
{"variant": "GGAUCUUCUCGAUCUAACAAAAAAGACAAAUCUGCCACAAAGCUUGAGAGCAUCUUAGGAUGCAGAGGCGGGAGCCUUCGGUGGCGCGAUAGCGCCAACGUUCUCAACUAUGACACGCAAAACGCGUGCUCCGUUGAAUGGAGUUAAUCAUG", "note": "[C57A C72G U146A]", "polymerase ribozyme fitness (log ratio)": "≤ -4.2"}
{"variant": "GGAUCUUCUCGAUCUAACAAAAAAGACAAAUCUGCCACAAAGCUUGAGAGCAUCUUAGGAUGCAGAGGCGGCAGACUUCGGUAGCGCGAUAGCGCCAACGUUCUUAACUAUGACACGCAAACCGCGUGCUCCGUUGAAUGGAGUUUAUCAUG", "note": "[C57A C75A G83A C105U A122C]", "polymerase ribozyme fitness (log ratio)": "≤ -4.2"}
{"variant": "GGAUCUUCUCGAUCUAACAAAAAAGACAAAUCUGCCACAAAGCUUGAGAGCAUCUUAGGAUGCAGAGGCGGCAGACUUCGGUGGCGCGAUAGCGCCAACGUUCCAACCUAUGAUACGCAAAACGCGUGCUCCGUUGAAUUGAGUUUAUCAUG", "note": "[C57A C75A U104C C105A A107C C114U G140U]", "polymerase ribozyme fitness (log ratio)": "≤ -4.2"}
{"variant": "GGAUCUUCUCGAUCUAACAAAAAAGACAAAUCUGCCACAAAGCUUGAGAGCAUCUUAGGAUGCAGAGGCGGCAGGCUUCGGUGGCGCGAUAGCGCCAACGUUCUCAACUAUGACACGCAAAACGCGUGCUCCGUUGAAUGGAGUUUAUCAUG", "note": "[C57A C75G]", "polymerase ribozyme fitness (log ratio)": "≤ -4.2"}
{"variant": "GGAUCUUCUCGAUCUAACAAAAAAGACAAAUCUGCCACAAAGCUUGAGAGCAUCUUAGGAUGCAGAGGCGGCAGUCUUCGGUGGCGCGAUACCGCCAACGUUCUCAACUAUGACACGCAAAACGCGUGCUCCGUUGAAUUGAGUUUAUCAUG", "note": "[C57A C75U G92C G140U]", "polymerase ribozyme fitness (log ratio)": "≤ -4.2"}
{"variant": "GGAUCUUCUCGAUCUAACAAAAAAGACAAAUCUGCCACAAAGCUUGAGAGCAUCUUAGGAUGCAGAGGCGGCAGCGUUCGGUGGCGCGAUAGCGCCAACGUUCUCAACUAUGGCACGCAAAACGCAUGAUCCGGUGAAUGGAGUUUAUCAUG", "note": "[C57A C76G A113G G126A C129A U134G]", "polymerase ribozyme fitness (log ratio)": "≤ -4.2"}
{"variant": "GGAUCUUCUCGAUCUAACAAAAAAGACAAAUCUGCCACAAAGCUUGAGAGCAUCUUAGGAUGCAGAGGCGGCAGCGUUCGGUGGCGCGAUAGCGCCAACGUUCUCAACUAUGACGCGCAAAACGCGUGCUCCGUUGAGUGGAGUUUAUCAUG", "note": "[C57A C76G A115G A138G]", "polymerase ribozyme fitness (log ratio)": "≤ -4.2"}
{"variant": "GGAUCUUCUCGAUCUAACAAAAAAGACAAAUCUGCCACAAAGCUUGAGAGCAUCUUAGGAUGCAGAGGCGGCAGCCUUCGGUGGGGCGCUAGCGCCAACGUUCUCAACUAUGACACGCAAAACGCGUGCUCCCUUGAAUGGAGUUUAUCAUG", "note": "[C57A C85G A89C G133C]", "polymerase ribozyme fitness (log ratio)": "≤ -4.2"}
{"variant": "GGAUCUUCUCGAUCUAACAAAAAAGACAAAUCUGCCACAAAGCUUGAGAGCAUCUUAGGAUGCAGAGGCGGCAGCCUUCGGUGGGGCGAUAGCGCCAACGUUCUAAACUAUGACACGCAAAACGCGUGCUCCGUAGAAUGGAGUUUAUCAAG", "note": "[C57A C85G C105A U135A U151A]", "polymerase ribozyme fitness (log ratio)": "≤ -4.2"}
{"variant": "GGAUCUUCUCGAUCUAACAAAAAAGACAAAUCUGCCACAAAGCUUGAGAGCAUCUUAGGAUGCAGAGGCGGCAGCCUUCGGUGGGGCAAUAGCGCCAACGUUCUCAACUAUGACACGCAAAACGCGUGCUCCGUUGAAUCUAGUUUAUCAUG", "note": "[C57A C85G G88A G140C G141U]", "polymerase ribozyme fitness (log ratio)": "≤ -4.2"}
{"variant": "GGAUCUUCUCGAUCUAACAAAAAAGACAAAUCUGCCACAAAGCUUGAGAGCAUCUUAGGAUGCAGAGGCGGCAGCCUUCGGUGGUGCGAUAGCGCCAACGUUCUCAACUAUGACACGCAAAACGCGUGCUCCGUUGAAUGGAGUUUAUCAUG", "note": "[C57A C85U]", "polymerase ribozyme fitness (log ratio)": -0.0999}
{"variant": "GGAUCUUCUCGAUCUAACAAAAAAGACAAAUCUGCCACAAAGCUUGAGAGCAUCUUAGGAUGCAGAGGCGGCAGCCUUCGGUGGUGCGAUAGCGCCAACGUUCUCAACUAUGACACGCAAAACUCGUGCACCGUUGAAUGGAGUUUAUCAUG", "note": "[C57A C85U G124U U130A]", "polymerase ribozyme fitness (log ratio)": -2.9}
{"variant": "GGAUCUUCUCGAUCUAACAAAAAAGACAAAUCUGCCACAAAGCUUGAGAGCAUCUUAGGAUGCAGAGGCGGCAGCCUUCGGUGGCGGGAUAGCGCCAACGUUCUCAACUAUGACACGCAAAACGCGUGCUCCGUUGAAUGGAGUUUAUCAUG", "note": "[C57A C87G]", "polymerase ribozyme fitness (log ratio)": -3.18}
{"variant": "GGAUCUUCUCGAUCUAACAAAAAAGACAAAUCUGCCACAAAGCUUGAGAGCAUCUUAGGAUGCAGAGGCGGCAGCCUUCGGUGGCGGGAUAGCGCCAACGUUCUCAACUAUGACACGCAAAACGCUUGCUCCGUUGAAUGGAGUUUAUCAUG", "note": "[C57A C87G G126U]", "polymerase ribozyme fitness (log ratio)": "≤ -4.2"}
{"variant": "GGAUCUUCUCGAUCUAACAAAAAAGACAAAUCUGCCACAAAGCUUGAGAGCAUCUUAGGAUGCAGAGGCGGCAGCCUUCGGUGGCGGGAUAGCGCCAACGUUCUCAACUAUGACACGCAAAACGCGUGCUCCGUUGAAUGGAGUUUAACAUG", "note": "[C57A C87G U148A]", "polymerase ribozyme fitness (log ratio)": "≤ -4.2"}
{"variant": "GGAUCUUCUCGAUCUAACAAAAAAGACAAAUCUGCCACAAAGCUUGAGAGCAUCUUAGGAUGCAGAGGCGGCAGCCUUCGGUGGCGCGAUAGAGCCAACGUUCUCACCUAUGACACGCAAAACGAGUGCUCCGUUGAAUGGAGUUGAUCAUG", "note": "[C57A C93A A107C C125A U146G]", "polymerase ribozyme fitness (log ratio)": "≤ -4.2"}
{"variant": "GGAUCUUCUCGAUCUAACAAAAAAGACAAAUCUGCCACAAAGCUUGAGAGCAUCUUAGGAUGCAGAGGCGGCAGCCUUCGGUGGCGCGAUAGCGCGAACGUUCCCAACUAUGACACGCAAAACGCGUGCUCCGUUGAAUGGAGUUUAUCAAG", "note": "[C57A C96G U104C U151A]", "polymerase ribozyme fitness (log ratio)": "≤ -4.2"}
